From PubChem BioAssay (Tox21)
Several values for one entry are separate records, joined by “and”; a condition that tells them apart may be missing. Equal entries are not always repeated. The inconclusive results got no clear call from the source; some entries with a clear call stand among them for comparison. For part of these data: Potencies of inconclusive entries are doubtful fits and often do not repeat. Some compounds were tested as several samples or in several runs, with calls that do not always agree. Activity calls are given as the source filed them. Unless noted, calls come from the whole dose curve; as a rule, active = well fitted curve in the direction sought with a large enough effect in the repeat runs; inconclusive = weak or mixed curves; inactive = no such curve, though single readings can be large; an effect the other way counts as inactive or inconclusive.

Key:
[1] = A CellTox Green Cytotoxicity Assay to monitor cytotoxicity in HepG2 cells - 16 hour (AID 1224876); note: nearly all actives have a fitted effect of over 45% in size
Method in brief: (§1)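 Real-time cytotoxicity: fluorescence of a cell-impermeant cyanine dye binding DNA of dead HepG2 cells, measured repeatedly (0–40 h) during compound exposure at 37 C. Cells seeded 600/well with reagent, dosed after 5 h.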

[2] = A CellTox Green Cytotoxicity Assay to monitor cytotoxicity in HepG2 cells - 24 hour (AID 1224878); note: nearly all actives have a fitted effect of over 45% in size
Method in brief: as §1

[3] = A CellTox Green Cytotoxicity Assay to monitor cytotoxicity in HepG2 cells - 40 hour (AID 1224879); note: nearly all actives have a fitted effect of over 40% in size
Method in brief: as §1

[4] = A CellTox Green Cytotoxicity Assay to monitor cytotoxicity in HepG2 cells - 0 hour (AID 1224882); note: nearly all actives have a fitted effect of over 35% in size
Method in brief: as §1

[5] = A CellTox Green Cytotoxicity Assay to monitor cytotoxicity in HepG2 cells - 32 hour (AID 1224883); note: nearly all actives have a fitted effect of over 50% in size
Method in brief: as §1

[6] = A CellTox Green Cytotoxicity Assay to monitor cytotoxicity in HEK293 cells - 16 hour (AID 1224888); note: nearly all actives have a fitted effect of over 35% in size
Method in brief: (§2)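 Fluorescence from a DNA-binding dye excluded by viable cells was measured repeatedly in the same HEK293 wells (600 cells/well) during continuous compound exposure at 37 C. Each assay gives one read point: 0, 8, 16, 24, 32 or 40 h.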

[7] = A CellTox Green Cytotoxicity Assay to monitor cytotoxicity in HepG2 cells - 8 hour (AID 1224890); note: nearly all actives have a fitted effect of over 45% in size
Method in brief: as §1

[8] = qHTS assay to identify small molecule antagonists of the estrogen receptor alpha (ER-alpha) signaling pathway using the BG1 cell line in the presence of 0.1 nM 17-beta-estradiol - cell viability counter screen (AID 1259241); note: nearly all actives have a fitted effect of over 40% in size
Method in brief: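 VM7Luc4E2, 4,000 cells/well, phenol red-free medium + 10% charcoal-stripped FBS; 24 hr plating; cpd + 0.1 nM E2 final, 22 hr 37C/5% CO2; CellTiter-Fluor 30 min, fluorescence.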

[9] = target: Androgen receptor (Homo sapiens) (UniProt P10275); assay: qHTS assay to identify small molecule antagonists of the androgen receptor (AR) signaling pathway using the MDA cell line in the presence of 0.5 nM R1881 (AID 1259243); note: nearly all actives have a fitted effect of over 50% in size
Sequence of UniProt P10275 (P10275 whole entry, looked up): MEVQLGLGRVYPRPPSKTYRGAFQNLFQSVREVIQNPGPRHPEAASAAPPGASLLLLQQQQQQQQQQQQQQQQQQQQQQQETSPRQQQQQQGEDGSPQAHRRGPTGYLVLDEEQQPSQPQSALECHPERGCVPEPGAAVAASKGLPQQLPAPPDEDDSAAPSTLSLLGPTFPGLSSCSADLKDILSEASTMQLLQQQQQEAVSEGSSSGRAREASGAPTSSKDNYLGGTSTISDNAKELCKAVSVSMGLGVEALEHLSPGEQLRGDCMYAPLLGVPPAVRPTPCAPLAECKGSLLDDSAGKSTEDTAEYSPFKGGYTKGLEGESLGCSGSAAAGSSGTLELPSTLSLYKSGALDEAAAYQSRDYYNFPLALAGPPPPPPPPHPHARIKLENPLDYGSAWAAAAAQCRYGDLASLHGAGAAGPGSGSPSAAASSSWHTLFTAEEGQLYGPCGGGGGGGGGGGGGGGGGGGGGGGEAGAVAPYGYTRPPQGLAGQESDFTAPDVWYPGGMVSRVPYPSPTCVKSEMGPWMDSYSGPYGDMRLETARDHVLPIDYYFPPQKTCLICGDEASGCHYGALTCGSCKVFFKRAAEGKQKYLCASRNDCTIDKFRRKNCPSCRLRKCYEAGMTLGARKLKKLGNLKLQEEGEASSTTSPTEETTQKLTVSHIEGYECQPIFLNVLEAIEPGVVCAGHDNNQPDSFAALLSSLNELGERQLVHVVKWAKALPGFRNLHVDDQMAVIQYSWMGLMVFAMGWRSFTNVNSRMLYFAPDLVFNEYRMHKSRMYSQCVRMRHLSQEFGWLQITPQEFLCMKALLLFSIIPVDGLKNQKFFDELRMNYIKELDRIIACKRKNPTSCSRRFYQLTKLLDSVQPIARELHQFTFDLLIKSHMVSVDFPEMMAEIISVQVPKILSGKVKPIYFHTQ
Method in brief: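 Luminescent reporter readout (ONE-Glo, 30 min, room temperature) after 16 hr co-treatment of MDA-kb2 cells with test compounds and 0.5 nM R1881 final, at 37C without CO2. The MMTV-driven luciferase responds to both AR and GR.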

[10] = qHTS assay to identify small molecule phospholipidosis (PLD) inducers (AID 1259344; active = well fitted curve in the direction sought with a large enough effect; inconclusive = small, poorly fitted or top-dose-only effect, or another doubt; inactive = no such curve, though single readings can be large; an effect the other way counts as inactive or inconclusive)
Method in brief: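 Read-out is LipidTOX Red fluorescence (ex 595/em 615) imaged in HepG2 cells after 24 h compound exposure at 37 C, with Hoechst nuclear counterstain (ex 352/em 461) allowing per-cell normalisation.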

[11] = A CellTox Green Cytotoxicity Assay to monitor cytotoxicity in HEK293 cells - 8 hour (AID 1224884); note: nearly all actives have a fitted effect of over 35% in size
Method in brief: as §2

[12] = qHTS RealTime-Glo MT Cell Viability Assay in HEK293 cells - 24 hour (AID 1224886); note: nearly all actives have a fitted effect of over 50% in size
Method in brief: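 Nonlytic real-time viability readout: viable cells convert prosubstrate to NanoLuc substrate, giving luminescence proportional to live cell number. HEK293, 600 cells/well, compound added after 5 h, continuous culture at 37 C.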

[13] = qHTS RealTime-Glo MT Cell Viability Assay in HEK293 cells - 8 hour (AID 1224887); note: nearly all actives have a fitted effect of over 50% in size
Method in brief: (§3)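 Luminescence, which tracks viable cell number through reduction of the prosubstrate to a NanoLuc substrate, was read over continuous 37 C culture. Cells (600/well) were premixed with reagent and rested 5 h before 23 nL of compound in DMSO was pinned.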

[14] = qHTS RealTime-Glo MT Cell Viability Assay in HepG2 cells - 32 hour (AID 1224877); note: nearly all actives have a fitted effect of over 55% in size
Method in brief: (§4)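 Luminescence read-out: viable HepG2 cells reduce a prosubstrate to a NanoLuc substrate, giving a signal proportional to live cell number. Reads taken at 0, 8, 16, 24, 32 and 40 h of compound exposure at 37 C.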

[15] = A CellTox Green Cytotoxicity Assay to monitor cytotoxicity in HEK293 cells - 32 hour (AID 1224881); note: nearly all actives have a fitted effect of over 40% in size
Method in brief: as §2

[16] = qHTS assay to identify small molecule antagonists of the androgen receptor (AR) signaling pathway using the MDA cell line in the presence of 0.5 nM R1881 - cell viability counter screen (AID 1259242); note: nearly all actives have a fitted effect of over 45% in size
Method in brief: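 Live-cell protease activity was measured by CellTiter-Fluor fluorescence after 30 min. Before that, MDA-kb2 MMTV-luciferase cells had 16 hr at 37C without CO2, exposed to test compounds and 0.5 nM R1881 final.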

[17] = qHTS RealTime-Glo MT Cell Viability Assay in HepG2 cells - 16 hour (AID 1224885); note: nearly all actives have a fitted effect of over 50% in size
Method in brief: as §4

[18] = target: Estrogen receptor (Homo sapiens) (UniProt P03372); assay: qHTS assay to identify small molecule antagonists of the estrogen receptor alpha (ER-alpha) signaling pathway using the BG1 cell line in the presence of 0.1 nM 17-beta-estradiol (AID 1259244); note: nearly all actives have a fitted effect of over 50% in size
Sequence of UniProt P03372 (P03372 whole entry, looked up): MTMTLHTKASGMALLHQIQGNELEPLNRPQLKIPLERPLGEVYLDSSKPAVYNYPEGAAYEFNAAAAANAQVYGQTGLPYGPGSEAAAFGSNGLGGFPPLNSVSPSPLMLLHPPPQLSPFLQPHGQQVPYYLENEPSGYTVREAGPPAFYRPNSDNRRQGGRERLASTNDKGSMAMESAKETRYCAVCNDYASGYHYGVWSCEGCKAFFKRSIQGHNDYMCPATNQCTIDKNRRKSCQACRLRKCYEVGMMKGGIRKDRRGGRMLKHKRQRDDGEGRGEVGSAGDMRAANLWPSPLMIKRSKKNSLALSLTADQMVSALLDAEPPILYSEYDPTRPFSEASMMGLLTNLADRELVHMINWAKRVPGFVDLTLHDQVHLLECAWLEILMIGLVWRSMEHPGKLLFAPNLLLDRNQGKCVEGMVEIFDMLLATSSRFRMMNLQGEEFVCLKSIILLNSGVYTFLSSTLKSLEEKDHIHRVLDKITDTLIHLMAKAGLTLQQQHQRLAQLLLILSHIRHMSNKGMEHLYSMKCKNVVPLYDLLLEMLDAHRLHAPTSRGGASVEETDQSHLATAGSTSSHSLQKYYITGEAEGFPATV
Method in brief: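 Luciferase luminescence (ONE-Glo, 30 min at room temperature) was read after 22 hr at 37C exposure to compounds plus 17beta-estradiol at 0.1 nM final. Cells were VM7Luc4E2 with endogenous ER-alpha and an ERE-driven luciferase, pre-cultured 5 days in hormone-depleted medium.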

[19] = qHTS RealTime-Glo MT Cell Viability Assay in HEK293 cells - 0 hour (AID 1224880); note: nearly all actives have a fitted effect of over 45% in size
Method in brief: as §3

[20] = qHTS RealTime-Glo MT Cell Viability Assay in HepG2 cells - 0 hour (AID 1224889); note: nearly all actives have a fitted effect of over 50% in size
Method in brief: as §4
Potency is the fitted concentration of half-maximal effect; tags give direction and shape of the fitted curve.

Compound: Nc1c(Cl)c(Cl)c(Cl)c(Cl)c1Cl
- Potency [1]: inconclusive: 54.9 µM [activator, single point]
- Potency [2]: inconclusive: 34.7 µM [activator, partial curve, poor fit]
- Potency [3]: inconclusive: 38.9 µM [activator, partial curve, poor fit]
- Potency [4]: inconclusive: 61.6 µM [activator, partial curve, poor fit]
- Potency [5]: inconclusive: 34.7 µM [activator, partial curve, poor fit]
- Potency [6]: inconclusive: 38.9 µM [activator, partial curve, poor fit]
- Potency [7]: inconclusive: 54.9 µM [activator, single point]
- Potency [8]: inconclusive: 24.3 µM [rising, single point]
- Potency [9]: inconclusive: 9.69 µM [inhibitor]
- Potency [10]: inconclusive: 11.2 µM [activator, single point]

Compound: CC(C)(C)c1ccccc1O
- Potency [1]: inconclusive: 54.9 µM [activator, single point]
- Potency [2]: inconclusive: 49 µM [activator, single point]
- Potency [11]: inconclusive: 55.6 µM [activator, single point] and inactive
- Potency [12]: inconclusive: 49.5 µM [cytotoxic, partial curve, poor fit]
- Potency [13]: inactive
- Potency [6]: inconclusive: 55.6 µM [activator, single point]
- Potency [7]: inconclusive: 49.5 µM [activator, single point] and inconclusive: 54.9 µM [activator, partial curve, poor fit]

Compound: CC(=O)c1cc2c(cc1C)C(C)(C)C(C)CC2(C)C (stereo unspecified)
- Potency [1]: active: 38.9 µM
- Potency [14]: inactive
- Potency [2]: active: 38.9 µM
- Potency [11]: inconclusive: 21.9 µM [activator, single point]
- Potency [12]: inconclusive: 30.9 µM [cytotoxic, partial curve, poor fit]
- Potency [13]: inconclusive: 30.9 µM [cytotoxic, partial curve]
- Potency [6]: active: 19.5 µM
- Potency [7]: inconclusive: 43.6 µM [activator, partial curve]

Compound: CCn1cc[n+](C)c1
- Potency [1]: inconclusive: 62.2 µM [activator, single point]
- Potency [14]: inactive and inconclusive: 39.3 µM [cytotoxic, partial curve]
- Potency [2]: inconclusive: 55.5 µM [activator, single point]
- Potency [15]: inconclusive: 55.5 µM [activator, single point] and inconclusive: 1.56 µM [activator, partial curve, poor fit]
- Potency [5]: inconclusive: 55.5 µM [activator, single point]
- Potency [6]: inconclusive: 55.5 µM [activator, partial curve, poor fit]
- Potency [16]: inconclusive: 13.8 µM [cytotoxic, full curve, poor fit]

Compound: CCC(C)(NC(=O)c1cc(Cl)c(C)c(Cl)c1)C(=O)CCl (stereo unspecified)
- Potency [1]: inconclusive: 43.9 µM [activator, single point]
- Potency [2]: inconclusive: 55.3 µM [activator, single point]
- Potency [5]: active: 49.3 µM
- Potency [17]: active: 49.3 µM
- Potency [12]: active: 24.7 µM
- Potency [13]: active: 27.7 µM
- Potency [8]: inconclusive: 69 µM [cytotoxic, single point]
- Potency [16]: inconclusive: 54.8 µM [cytotoxic, partial curve]

Compound: C=CC(=O)OC(C)(C)C
- Potency [1]: inactive

Compound: C1CCC(NC2CCCCC2)CC1
- Potency [1]: inactive

Compound: Cc1cc(C2CC2)nc(Nc2ccccc2)n1
- Potency [1]: inconclusive: 54.9 µM [activator, single point]
- Potency [14]: inconclusive: 49 µM [cytotoxic, partial curve, poor fit]
- Potency [2]: inconclusive: 54.9 µM [activator, single point]
- Potency [3]: inconclusive: 54.9 µM [activator, single point]
- Potency [17]: inconclusive: 54.9 µM [cytotoxic, partial curve, poor fit]
- Potency [13]: active: 21.9 µM

Compound: CCCCCc1cc(O)cc(O)c1
- Potency [1]: inconclusive: 34.7 µM [activator, partial curve, poor fit]
- Potency [14]: inactive and active: 49 µM
- Potency [2]: inconclusive: 55.2 µM [activator, single point] and inconclusive: 21.9 µM [activator, partial curve, poor fit]
- Potency [3]: inconclusive: 55.2 µM [activator, single point] and inconclusive: 24.5 µM [activator, partial curve, poor fit]
- Potency [15]: inconclusive: 61.7 µM [activator, partial curve, poor fit]
- Potency [5]: inconclusive: 55.2 µM [activator, single point] and inconclusive: 24.5 µM [activator, partial curve, poor fit]
- Potency [13]: inconclusive: 24.7 µM [cytotoxic, partial curve] and active: 24.5 µM

Compound: Oc1ccccc1-c1ccccc1
- Potency [1]: inconclusive: 56.2 µM [activator, single point]
- Potency [2]: inconclusive: 56.2 µM [activator, single point] [middle of 4 runs]
- Potency [3]: inconclusive: 55 µM [activator, single point] [middle of 4 runs]
- Potency [15]: inconclusive: 56.2 µM [activator, single point]
- Potency [5]: inconclusive: 55 µM [activator, single point] [middle of 4 runs]
- Potency [7]: inconclusive: 56.2 µM [activator, single point]

Compound: O=C(O)c1nn(Cc2ccc(Cl)cc2Cl)c2ccccc12
- Potency [1]: active: 0.0952 µM
- Potency [2]: active: 0.107 µM
- Potency [18]: inconclusive: 2.15 µM [inhibitor, partial curve]
- Potency [10]: inactive

Compound: COc1ccc(C(=O)N2CCCC2=O)cc1
- Potency [1]: inconclusive: 26.8 µM [activator, single point]
- Potency [2]: inconclusive: 26.8 µM [activator, single point]
- Potency [3]: inconclusive: 26.8 µM [activator, single point]
- Potency [5]: inconclusive: 26.8 µM [activator, single point]

Compound: O=C1OC(c2ccc(O)c(S(=O)(=O)O)c2)(c2ccc(O)c(S(=O)(=O)O)c2)c2c(Br)c(Br)c(Br)c(Br)c21
- Potency [1]: inactive

Compound: OCC1CO1 (stereo unspecified)
- Potency [1]: inconclusive: 44.4 µM [activator, partial curve] and inconclusive: 61.6 µM [activator, single point]
- Potency [2]: inconclusive: 61.6 µM [activator, single point]
- Potency [3]: inconclusive: 49.8 µM [activator, partial curve] and inconclusive: 61.6 µM [activator, single point]
- Potency [15]: inconclusive: 49.8 µM [activator, single point]
- Potency [4]: inconclusive: 44.4 µM [activator, partial curve, poor fit] and inconclusive: 54.9 µM [activator, single point]
- Potency [11]: active: 44.4 µM
- Potency [6]: inconclusive: 55.9 µM [activator, single point]
- Potency [7]: inconclusive: 55.9 µM [activator, single point] and inconclusive: 54.9 µM [activator, single point]

Compound: O=Cc1ccco1
- Potency [1]: inconclusive: 53.1 µM [activator, single point]
- Potency [2]: inconclusive: 47.3 µM [activator, single point]
- Potency [3]: inconclusive: 47.3 µM [activator, single point]
- Potency [15]: inconclusive: 21.9 µM [activator, single point]
- Potency [4]: inconclusive: 53.1 µM [activator, single point]
- Potency [5]: inconclusive: 47.3 µM [activator, partial curve]
- Potency [11]: active: 42.2 µM
- Potency [12]: inconclusive: 21.9 µM [rising, single point]
- Potency [13]: inconclusive: 21.9 µM [rising, single point]
- Potency [7]: inconclusive: 53.1 µM [activator, single point]
- Potency [8]: inactive

Compound: CC(C)Nc1ccc(Nc2ccccc2)cc1
- Potency [1]: active: 49 µM
- Potency [14]: inconclusive: 54.9 µM [cytotoxic, single point]
- Potency [3]: inconclusive: 54.7 µM [activator, single point]
- Potency [19]: active: 7.73 µM and active: 19.5 µM
- Potency [4]: inconclusive: 38.9 µM [activator, partial curve, poor fit]
- Potency [5]: inconclusive: 61.4 µM [activator, single point] and active: 43.6 µM
- Potency [11]: inconclusive: 49 µM [activator, partial curve, poor fit]
- Potency [17]: active: 54.7 µM and active: 49 µM
- Potency [6]: inconclusive: 54.7 µM [activator, single point]
- Potency [20]: inconclusive: 15.4 µM [cytotoxic, partial curve] and inconclusive: 19.5 µM [cytotoxic, partial curve]
- Potency [7]: active: 49 µM
- Potency [8]: inconclusive: 68.6 µM [cytotoxic, partial curve]
- Potency [16]: active: 60.9 µM and inconclusive: 61.1 µM [cytotoxic]

Compound: Clc1ccc(CCC(Cn2ccnc2)Sc2c(Cl)cccc2Cl)cc1 (stereo unspecified)
- Potency [1]: inconclusive: 10.7 µM [activator, single point]
- Potency [14]: inconclusive: 23.9 µM [cytotoxic, partial curve, poor fit]
- Potency [2]: inconclusive: 10.7 µM [activator, single point]
- Potency [4]: inconclusive: 10.7 µM [activator, single point]
- Potency [5]: inconclusive: 9.52 µM [activator, partial curve]
- Potency [17]: inconclusive: 21.3 µM [cytotoxic, partial curve]
- Potency [12]: inconclusive: 10.7 µM [cytotoxic, partial curve]
- Potency [13]: inconclusive: 9.52 µM [cytotoxic, partial curve]
- Potency [7]: inconclusive: 10.7 µM [activator, single point]
